Measurements taken from paper PMC12040169 (PLOS Biology, 2025).
The other results are listed elsewhere or left out.

Each compound was assayed on T1, C. trachomatis L2/434/Bu expressing GFP (CTL2-GFP). Details: total inclusion area; 28.5 h, 10 µM; inhibitor.
T1 construct: L2/434/Bu GFP intracellular growth in HeLa cells
Design: species or system HeLa; C. trachomatis total inclusion area by high-content imaging, normalised to DMSO
Summary of the method: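 Bulk GFP and resorufin signals were read first. Wells were then fixed, stained with Hoechst and imaged to detect GFP inclusions and host nuclei. MICs followed the previously described calculation.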

| SMILES | % of control remaining |
| --- | --- |
| Cc1ccc(C(=O)N/C(=C\c2ccc3c(c2)OCO3)C(=O)NCC(=O)O)cc1 [CBK265669] | 105.748 |
| O=C(O)C(Cc1ccc(O)cc1)c1ccccc1 (centres unmarked) [CBK012287] | 86.7144 |
| O=C(c1cncc(O)c1)N1C2CCC1CC(c1ccc(F)cc1)C2 (centres unmarked) [CBK283764] | 94.398 |
| CSCCCNC(=O)N1CCN(c2ccccc2)CC1 [CBK155170] | 109.33 |
| CCC(C)(C)c1ccc(S(=O)(=O)N2CCN(Cc3cc(C(=O)OC)n(C)c3)CC2)cc1 [CBK062831] | 53.6823 |
| COc1ccnc(N2CCN(C(=O)c3cccc4c3NCCC4)CC2)n1 [CBK306639] | 86.3028 |
| Cc1ccc(C(=O)/C=C(\Nc2cccc(C(F)(F)F)c2)C(=O)O)cc1 [CBK264366] | 91.4296 |
| N#CCCN(C(=O)NCc1ccc2c(c1)OCO2)C1CCCCC1 [CBK156351] | 101.698 |
| CC(C)OCc1ccc(C(=O)N2CCC(C(=O)O)CC2)cc1 [CBK297141] | 80.08 |
| CN1N=C(c2ccc(N3CCOCC3)c(F)c2)CC1c1cnn(C)c1 (centres unmarked) [CBK305726] | 106.63 |
| COc1ccc(C2NCCS2)cc1Br (centres unmarked) [CBK021053] | 105.772 |
| CC(C)OC(=O)CN1C(=O)N2CCCN=C2c2ccccc21 [CBK284394] | 93.1166 |
| CSc1nnc(CC2CCN(C(=O)Cn3nnnc3N)CC2)n1C [CBK306520] | 75.1273 |
| CC(C(=O)Nc1sc2c(c1C(=O)NCc1ccco1)CCCC2)N1C(=O)c2ccccc2C1=O (centres unmarked) [CBK265603] | 101.89 |
| C=C(C)Cn1c(SCC(C)C)nnc1-c1cnccc1C [CBK200075T] | 137.421 |
| CCN(CC)CCn1nc2n(c1=O)-c1ccccc1SC(c1ccccc1)C2 (centres unmarked) [CBK016064] | 86.6886 |
| CS(=O)(=O)N1CC[C@H](c2nc3ccccc3s2)C1 [CBK289374] | 88.8182 |
| Cc1cc(C)nc(N2CCC(CC(=O)Nc3ccccc3CN3CCCC3)CC2)n1 [CBK286072] | 98.8909 |
| COc1ccc(Oc2cncc(OC3CCN(CC(N)=O)C3)n2)cc1OC (centres unmarked) [CBK084402] | 106.439 |
| CN1CCC(N2CCN(C(=O)C3(c4ccccc4)CCCC3)CC2)CC1 [CBK149096] | 84.6914 |
| N#Cc1ccccc1CSc1nnc(Cc2cccc3ccccc23)n1-c1ccccc1 [CBK266633] | 70.6545 |
| C=CCn1oc(=O)n(-c2ccc(OC)cc2)c1=O [CBK122773] | 107.57 |
| O=C1/C(=C/c2c(NCCCn3ccnc3)nc3ccccn3c2=O)SC(=S)N1C1CCCCC1 [CBK264696] | 88.9176 |
